Reference: PubChem BioAssay AID1634 (National Center for Advancing Translational Sciences (NCATS), 2009)
In all, about 260,000 compounds went through this assay and about 150 (0.058%) were called active. This list was built around the results that the source calls inconclusive (neither active nor inactive); the mix of calls is not that of the screen. Calls come from the whole dose curve; as a rule, active = well fitted inhibition curve with a large enough effect; inconclusive = small, poorly fitted or top-dose-only effect; inactive = no such curve, though single readings can be large or run the other way. No potency is given beside an inconclusive call; the fits are too rough.

These compounds were tested against Pyruvate kinase PKM (Homo sapiens) (UniProt P14618) (assay: qHTS Assay for Inhibitors of Human Muscle isoform 2 Pyruvate Kinase). Details: purified PKM2, ATP generation, Kinase-Glo luminescence; series mostly up to 57.5 µM; activity change, negative = inhibition: at the top concentration.
Sequence of UniProt P14618 (P14618 whole entry, looked up, canonical isoform): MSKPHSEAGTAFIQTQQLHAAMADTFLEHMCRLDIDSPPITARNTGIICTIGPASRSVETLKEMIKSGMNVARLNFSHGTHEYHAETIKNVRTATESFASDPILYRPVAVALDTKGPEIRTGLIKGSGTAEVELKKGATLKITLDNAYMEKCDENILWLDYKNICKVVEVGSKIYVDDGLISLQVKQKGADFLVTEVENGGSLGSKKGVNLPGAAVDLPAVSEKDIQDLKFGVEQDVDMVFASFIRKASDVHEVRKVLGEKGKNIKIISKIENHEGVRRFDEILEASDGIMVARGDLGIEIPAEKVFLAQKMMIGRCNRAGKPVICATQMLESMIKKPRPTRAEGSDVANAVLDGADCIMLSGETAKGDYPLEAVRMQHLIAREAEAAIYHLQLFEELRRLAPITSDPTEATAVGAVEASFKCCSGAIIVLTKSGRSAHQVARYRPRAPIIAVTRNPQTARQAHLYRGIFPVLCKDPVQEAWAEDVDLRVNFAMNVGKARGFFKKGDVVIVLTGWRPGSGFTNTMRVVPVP
Procedure, shortened: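 Coupled luciferase luminescence (Kinase-Glo) detects ATP generated from 0.1 mM ADP and 0.5 mM PEP in imidazole buffer pH 7.2 with KCl, MgCl2; 1 h at room temperature. Enzyme at intermediate activity; normalized to uninhibited and no-enzyme controls.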
Note: nearly all actives have a fitted effect of over 60% in size.
Potency is the fitted concentration of half-maximal effect; tags give direction and shape of the fitted curve.
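Throughout, for activity change, negative = inhibition: plate controls were uninhibited enzyme wells for no effect and no-enzyme wells for full effect.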

Row | Compound | activity change, negative = inhibition | Potency
1 | Cn1c(=O)c2c(nc(Br)n2C/C=N/NC(N)=S)n(C)c1=O | inactive: 87% | 
2 | Brc1ccc(N/N=C(/N=Nc2nn[nH]n2)c2ccccc2)cc1 |  | inconclusive [falling, partial curve]
3 | COc1ccc(NC2CCN(C3CC(=O)N(c4ccc(F)c(Cl)c4)C3=O)CC2)cc1 (centres undefined) | inactive: 30.4% | 
4 | Cc1ccc2[nH]c(=O)c3cc(C(=O)N4CCN(C(=O)c5ccco5)CC4)sc3c2c1 | inactive: 60.7% | 
5 | Cc1nc(N2CCCCC2)sc1C(=O)c1cccc([N+](=O)[O-])c1 |  | inconclusive [falling, single point]
6 | CCOc1ncccc1C(=O)Nc1nnc(C(CC)CC)s1 |  | inconclusive [falling, single point]
7 | S=C(NC1CCCC1)N1CCN(C/C=C/c2ccccc2)CC1 | inactive: 0.335% | 
8 | Cc1cccc(/C=N/n2c(-c3ccncc3)n[nH]c2=S)c1 |  | inconclusive [falling, partial curve]
9 | Cc1ccc(S(=O)(=O)N(C)C)cc1NC(=O)c1ccccc1Br |  | inconclusive [falling, single point]
10 | CCN(CCN(C)C)C(=O)c1ccc2c(c1NCCO)C(=O)c1ccccc1C2=O |  | inconclusive [falling, single point]
11 | O=C(Nc1ccc(-c2nc3cccnc3s2)cc1)C1CCCO1 (centres undefined) |  | inconclusive [falling, partial curve]
12 | COc1ccc(C(=O)Nc2cccc(OC)c2)cc1 |  | inconclusive [falling, full curve]
13 | Cc1cc2ncc(S(=O)(=O)c3ccccc3)c(N)n2n1 | inactive: 37.1% | 
14 | CCOC(=O)Cc1csc(NS(=O)(=O)c2ccc(OC)cc2)n1 | inactive: 49% | 
15 | Cc1occc1C(=O)N/N=C/c1cccs1 |  | inconclusive [falling, single point]
16 | NC(=O)c1c(NC(=O)CCCn2cnc([N+](=O)[O-])n2)sc2c1CCCC2 |  | inconclusive [falling, full curve, poor fit]
17 | Cc1ccc(-n2nnc(-c3nccs3)n2)cc1 |  | inconclusive [falling, partial curve]
18 | CC(=O)N1CCN(Cc2nc(C(c3ccccc3)c3ccccc3)no2)CC1 |  | inconclusive [falling, single point]
19 | Cc1ccsc1C(=O)Nc1ccc(C(=O)O)cc1 |  | inconclusive [falling, partial curve]
20 | Cc1ccc(C(=O)N2CCc3ccccc32)o1 |  | inconclusive [falling, partial curve]
21 | Cc1ccc(-c2cc(-c3ccc(C)o3)nc(N)c2C#N)cc1 | inactive: 57.9% | 
22 | CCc1ccn2cc(-c3ccc4c(c3)OCO4)nc2c1 |  | inconclusive [falling, partial curve]
23 | CC(=O)c1ccc(NC(=O)c2ccn[nH]2)cc1 |  | inconclusive [falling, single point]
24 | CC(=O)N1N=C(c2ccc(C)o2)CC1c1cccc(F)c1 (centres undefined) | inactive: 33.9% | 
25 | CSc1nc2ccc(NS(=O)(=O)c3ccc4c(c3)OCCO4)cc2s1 | inactive: 61.4% | 

Row | Compound | activity change, negative = inhibition | Potency
26 | CC(C)(C)c1c(Cl)c(O)c(-c2ccccc2)c(=O)n1-c1ccccc1 |  | inconclusive [falling, single point]
27 | COc1ccc(OCC(=O)Nc2ccccc2O)cc1 |  | inconclusive [falling, single point]
28 | Cc1ccc(C(=O)O)cc1NC(=O)CSc1ncnc2sc3c(c12)CCC3 |  | inconclusive [falling, single point]
29 | CNC(=S)N/N=C/c1ccc(-c2ccc(C(=O)O)cc2)o1 |  | inconclusive [falling, partial curve]
30 | O=C(O)CCn1cc(C2CC(c3ccccc3)=NN2c2ccccc2)c(-c2ccccc2)n1 (centres undefined) | inactive: 35.4% | 
31 | Cc1ccc(CCC(=O)Nc2ncc(Cc3cccc(Cl)c3Cl)s2)o1 | inactive: 49.5% | 
32 | O=C(NNC(=O)c1sccc1-n1cccc1)Nc1ccccc1 |  | inconclusive [falling, single point]
33 | O=[N+]([O-])c1cccc(/C([O-])=C(/C(=S)Nc2ccccc2F)[n+]2ccccc2)c1 |  | inconclusive [falling, full curve, poor fit]
34 | COc1cc2c(cc1OC)CN(C(=O)c1ccc3[nH]c(C)c(C)c3c1)CC2 | inactive: 1.91% | 
35 | Cc1ccc(NC(=S)NCCc2ccccc2)nc1 |  | inconclusive [falling, full curve]
36 | COc1ccc(-c2nc3ccccc3[nH]2)cc1 |  | active: 12.6 µM
37 | CCC(C)c1ccc(NC(=S)NCCn2cc(Br)cn2)cc1 (centres undefined) |  | inconclusive [falling, single point]
38 | COc1ccc(/C=N/Nc2nccnc2Cl)cc1 |  | active: 12.6 µM
39 | CC(=O)c1sc(NC(=O)c2ccc(Cn3cc(Br)cn3)o2)nc1C | inactive: 69.2% | 
40 | CCCC(=O)Nc1ccc(C(=O)NNC(=S)NC(=O)c2ccc(Br)o2)cc1 |  | inconclusive [falling, full curve]
41 | COc1ccc(CNC(=O)C2CCN(S(=O)(=O)c3ccc(Br)s3)CC2)cc1 | inactive: 42.7% | 
42 | O=C(O)CCC(=O)Nc1ccc(-c2nc3ccc(C(=O)c4ccccc4)cc3[nH]2)cc1 |  | inconclusive [falling, single point]
43 | Cc1ccccc1-n1sc2cc(F)ccc2c1=O |  | inconclusive [falling, single point]
44 | CCC(=O)Nc1nc(=S)ss1 |  | inconclusive [falling, single point]
45 | CCOC(=O)c1cnc(Nc2nc3ccccc3o2)nc1C |  | inconclusive [falling, partial curve]
46 | NS(=O)(=O)c1ccc(NC(=O)CSc2nc3ccccc3[nH]2)cc1 | inactive: 41% | 
47 | O=C(NC1CCCCC1)c1sc(=S)n2c1[nH]c(=O)c1ccccc12 |  | inconclusive [falling, single point]
48 | NNC(=O)c1nn(-c2ccc(Cl)cc2)cc1O | inactive: 39.9% | 
49 | CCC1(c2ccccc2)NC(=O)N(CC(=O)Nc2cccc(C#N)c2)C1=O (centres undefined) |  | inconclusive [falling, single point]
